# This is one part of the list. Many values rest on one well or one pass, so single values are uncertain.
# Tested on: G361
# Experiment: cell count relative to DMSO control; melanoma cells; higher = more viable cells
# Settings: library dose: low library concentration; 72 h
# 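Note: cell number obtained by counting DAPI-stained nuclei in high-throughput microscope images with image analysis software, screen run in 1,536-well plates.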
row,Compound,cell count
1,"C[C@]12O[C@H](C[C@]1(O)CO)n1c3ccccc3c3c4c(c5c6ccccc6n2c5c31)CNC4=O [Lestaurtinib] + CCN(CC)CCNC(=O)c1c(C)[nH]c(/C=C2\C(=O)Nc3ccc(F)cc32)c1C [sunitinib] (first compound 0.004 µM, partner dose 0.4 µM)",99.6%
2,"C[C@]12O[C@H](C[C@]1(O)CO)n1c3ccccc3c3c4c(c5c6ccccc6n2c5c31)CNC4=O [Lestaurtinib] + CS(=O)(=O)c1ccc(C(=O)Nc2ccc(Cl)c(-c3ccccn3)c2)c(Cl)c1 [vismodegib] (first compound 0.004 µM, partner dose 1 µM)",96.9%
3,"C[As](C)SC[C@H](NC(=O)CC[C@H](N)C(=O)O)C(=O)NCC(=O)O [Darinaparsin] + Cn1cc(/C=C2\C(=O)Nc3cccnc32)c2ccccc21 [GW441756] (first compound 0.4 µM, partner dose 0.4 µM)",90.3%
4,"C[C@]12O[C@H](C[C@]1(O)CO)n1c3ccccc3c3c4c(c5c6ccccc6n2c5c31)CNC4=O [Lestaurtinib] + CC(=O)c1c(C)c2cnc(Nc3ccc(N4CCNCC4)cn3)nc2n(C2CCCC2)c1=O [palbociclib] (first compound 0.004 µM, partner dose 0.04 µM)",90.3%
5,"C[C@]12O[C@H](C[C@]1(O)CO)n1c3ccccc3c3c4c(c5c6ccccc6n2c5c31)CNC4=O [Lestaurtinib] + Nc1nc(F)nc2c1ncn2[C@@H]1O[C@H](CO)[C@@H](O)[C@@H]1O [fludarabine] (first compound 0.004 µM, partner dose 0.2 µM)",100%
6,"Cn1cc(C2=C(c3cn(C4CCN(Cc5ccccn5)CC4)c4ccccc34)C(=O)NC2=O)c2ccccc21 [Enzastaurin] + C[C@]12O[C@H](C[C@]1(O)CO)n1c3ccccc3c3c4c(c5c6ccccc6n2c5c31)CNC4=O [Lestaurtinib] (first compound 0.8 µM, partner dose 0.004 µM)",122%
7,"C[C@]12O[C@H](C[C@]1(O)CO)n1c3ccccc3c3c4c(c5c6ccccc6n2c5c31)CNC4=O [Lestaurtinib] + CS(=O)(=O)CCNCc1ccc(-c2ccc3ncnc(Nc4ccc(OCc5cccc(F)c5)c(Cl)c4)c3c2)o1 [lapatinib] (first compound 0.004 µM, partner dose 0.8 µM)",91.4%
8,"C[C@]12O[C@H](C[C@]1(O)CO)n1c3ccccc3c3c4c(c5c6ccccc6n2c5c31)CNC4=O [Lestaurtinib] + Clc1ccc(Nc2nnc(Cc3ccncc3)c3ccccc23)cc1 [vatalanib] (first compound 0.004 µM, partner dose 2 µM)",87%
9,"C[C@]12O[C@H](C[C@]1(O)CO)n1c3ccccc3c3c4c(c5c6ccccc6n2c5c31)CNC4=O [Lestaurtinib] + Cc1cc(Nc2cc(N3CCN(C)CC3)nc(/C=C/c3ccccc3)n2)n[nH]1 [ENMD2076] (first compound 0.004 µM, partner dose 0.04 µM)",98.7%
10,"C[C@]12O[C@H](C[C@]1(O)CO)n1c3ccccc3c3c4c(c5c6ccccc6n2c5c31)CNC4=O [Lestaurtinib] + C#Cc1cccc(Nc2ncnc3cc(OCCOC)c(OCCOC)cc23)c1 [erlotinib] (first compound 0.004 µM, partner dose 0.8 µM)",96.5%
11,"C[C@]12O[C@H](C[C@]1(O)CO)n1c3ccccc3c3c4c(c5c6ccccc6n2c5c31)CNC4=O [Lestaurtinib] + Nc1ncn([C@H]2C[C@H](O)[C@@H](CO)O2)c(=O)n1 [decitabine] (first compound 0.004 µM, partner dose 0.1 µM)",91%
12,"C[C@]12O[C@H](C[C@]1(O)CO)n1c3ccccc3c3c4c(c5c6ccccc6n2c5c31)CNC4=O [Lestaurtinib] + COCC[n+]1c2c(n(Cc3cnccn3)c1C)C(=O)c1ccccc1C2=O [YM155] (first compound 0.004 µM, partner dose 0.0004 µM)",99%
13,"C[As](C)SC[C@H](NC(=O)CC[C@H](N)C(=O)O)C(=O)NCC(=O)O [Darinaparsin] + COC(=O)c1sccc1S(=O)(=O)Nc1ccc(Nc2ccccc2)cc1OC [GSK0660] (first compound 0.4 µM, partner dose 1 µM)",102%
14,"C[C@]12O[C@H](C[C@]1(O)CO)n1c3ccccc3c3c4c(c5c6ccccc6n2c5c31)CNC4=O [Lestaurtinib] + C[C@]1(c2nc3c(C(N)=O)cccc3[nH]2)CCCN1 [Veliparib] (first compound 0.004 µM, partner dose 1.4 µM)",108%
15,"C[As](C)SC[C@H](NC(=O)CC[C@H](N)C(=O)O)C(=O)NCC(=O)O [Darinaparsin] + O=C(Oc1ccc([N+](=O)[O-])cc1)N1CCC(C(O)(c2ccc3c(c2)OCO3)c2ccc3c(c2)OCO3)CC1 [JZL184] (first compound 0.4 µM, partner dose 1 µM)",116%

# From the supplement of paper PMC4604168 (melanoma cell lines)
